Measured values as given in the supplement of paper PMC11417369.
± gives the standard deviation of the averaged measurements. Some of the results follow.

Each sequence was assayed on PfAP2-I AP2 domain 3 (GST-tagged) (assay: gcPBM binding intensity (ln(normalized median fluorescence intensity)); higher = stronger DNA binding).
In short: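 In this array assay, P. falciparum DNA-binding domains with a GST tag, expressed in E. coli, were applied for 1 h to primer-extended double-stranded 36-bp intergenic genomic probes and negative controls on an Agilent 4 × 180k array. Bound protein was visualised with Alexa488 anti-GST antibody at 488 nm. Binding intensity is the highest Masliner-normalised natural-log median intensity across replicate spots of either probe orientation.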

Sequence	gcPBM binding intensity (ln)
TTTTTTTTTTTTCATTGTACTCTTAAAAATTCAACT [XGTACX_site3154]	8.24 ± 0.85
TATTTTTTTTTTTTTTTACACACTATAGGGAAAAAA [CACACA_site8583]	7.79 ± 0.46
ATTAAAATTTAAAATACACACACATATATATAATAT [CACACA_site8612]	7.91 ± 0.42
AACAACAACTAATATGCACACATTTAAAAACAAAAT [CACACA_site2440]	9.42 ± 0.26
TGTCATGATACATACACACACATACCCATACCCATA [CACACA_site5211]	8.02 ± 0.38
AAATAAAGCATGTGCTGTACAAACGAAATATTTAAG [XGTACX_site3146]	8.38 ± 0.61
TTTATGTGTATTAAGTGTACACATATAGTGTATTTT [XGTACX_site999]	7.96 ± 0.18
ATATATAAGGAAAAAAGTACTTATATTTTTTTTTTG [XGTACX_site1909]	7.38 ± 0.42
AACAAATGTTAAATGTTTAAGGAGAAAATAAAGACA [CACACA_negctrl_site1163]	7.92 ± 0.45
AAAACGAAACATCTGTGTATAAGTCTATATTATTAT [XGTACX_negctrl_site301]	7.57 ± 0.63
GAAAACATAAAAATATGTACTTAAAATATATTTTGT [XGTACX_site868]	7.58 ± 0.45
TTTAAATACAGACATACACACATACACCCACATATA [CACACA_site8078]	8.25 ± 0.085
TAAGAAATAAATAGTACACACATAGACACAGACACA [CACACA_site4934]	8.3 ± 0.32
TGTTTTTATTTATTCTGTACTGAAGAGAGTTATATA [XGTACX_site8859]	7.86 ± 0.57
ATATAAATTTTTTATGAACACACAAATACAGACACT [CACACA_site8848]	8.38 ± 0.11
GTATATGAGAAAAAAAGTACATGCACAAAATGTATA [XGTACX_site6441]	8.55 ± 0.71
ATAATTAAAAAAAATTGTACATATAAATAGAAGATT [XGTACX_site230]	8.11 ± 0.56
AGATTAAAATAATATAAACACACATATACTTTTTTC [CACACA_site8085]	7.53 ± 0.54
TAGGTATGCTCTCAATGTACATAAAATAATTTTACT [XGTACX_site6556]	7.97 ± 0.3

Sequence	gcPBM binding intensity (ln)
AAAAAAAAAAGAATAGCACACACACCGATATAAATA [CACACA_site8111]	7.97 ± 0.5
ATATTCATGTTGATATGTACTTATTCTATATTGAAT [XGTACX_site8347]	7.7 ± 0.24
TATATATATATATATATACACACTTGTGCAGAATAT [CACACA_site2216]	9.78 ± 0.057
AATACAAGAACTGACACACATACATACTACATTTTA [CACACA_site2829]	8 ± 0.63
ATATTTATATATAGTAGTACTTTCAATAATTTAAAT [XGTACX_site7276]	7.74 ± 0.26
AAAGAAAGAAGACACACACACATATATAAATATCAA [CACACA_site7715]	7.66 ± 0.49
TATGATATTTATATGCGTACTGAAGTATGCCTATTT [XGTACX_site6133]	7.67 ± 0.52
AAAAAATTAAAAATACGTACATATATACATATATAT [XGTACX_site4621]	7.79 ± 0.38
TCATTTTAAAAAAATAGTACTTTAAGAAACTTTTAT [XGTACX_site602]	7.45 ± 0.23
TTTTTTTTTTTTTTTTTTTATGTATACATATTTATA [TGCATGCA_negctrl_site234]	8.06 ± 0.55
GATATTCTATAAAAAAGTACAAATATTTTAAAAAAT [XGTACX_site2177]	7.91 ± 0.42
TAAATCCTTTACAACACACACACAAAAAAAAAAAAA [CACACA_site643]	8.01 ± 0.55
AGCATTAATTATTTCACACATATATATATATATATA [CACACA_site4889]	9.3 ± 0.85
GATTATATATACAAAAGTACATTATAAAAATTTCAT [XGTACX_site4223]	7.78 ± 0.26
CCCTTAAAATATAAATGTACAAAATTATTTGTATGT [XGTACX_site6164]	7.83 ± 0.55
TTCTTTTAATTACGAGTGCATACCATATGACATTAT [GTGCAC_site9819]	8.8 ± 0.33
GTGAATATTAAAAAATGTACACAATTATATGTATAT [XGTACX_site4834]	7.71 ± 0.38
AGAAAAGAGAGAAAAACATGCACATGATATTATAAA [TGCATGCA_site120]	7.79 ± 0.67
ATAAACATCTAGTGCTGTACACAATTTGATTTTTTT [XGTACX_site3110]	8.9 ± 0.31

Sequence	gcPBM binding intensity (ln)
CAAATACATGGACACACACACATATACAGATATATA [CACACA_site5854]	7.99 ± 0.24
CAAACATGTTCAAATTGTACAATAGAAAATATATAT [XGTACX_site1557]	7.93 ± 0.59
TTTTTTTTTTTTTTCTGTACTTAAAAAGGGGGAGAA [XGTACX_site3799]	8.79 ± 0.7
TTGAAGTTTGATTGTAGTACGAATTGGTAGTTTTTT [XGTACX_site6854]	7.76 ± 0.4
TATTTATAACATTGTACACACAAAGAAATAATATTA [CACACA_site7422]	7.82 ± 0.38
ACGTATGTATATTACACACATACATATTATTCACTA [CACACA_site204]	7.75 ± 0.64
ACATATATATACTATCGATTAATAAATTTGTTTTTT [CACACA_negctrl_site881]	7.85 ± 0.64
CATATATAACATATAACACACATACTTAGTATTACA [CACACA_site5674]	7.79 ± 0.33
ATGATAAACATGGATACACACATATATATTACATAT [CACACA_site1576]	7.84 ± 0.48
ATAATATTTTATATAGTGCATTTGCTCATTATATAT [GTGCAC_site9528]	9.85 ± 0.45
TGAGTATATATAAATACACACCAAATGTTAATATAT [CACACA_site5022]	7.67 ± 0.64
AGGTTAATCGAAATTGCATGTGACGAAAAATCAAAA [TGCATGCA_site666]	7.7 ± 0.78
TTGTATAATTTAACAAGTACAAAATAAATTTGTATA [XGTACX_site5505]	7.46 ± 0.35
TTCAATTAAAAAATATGTACGCATAAATTGATATAT [XGTACX_site4289]	8.01 ± 0.37
TTTTATGGAAAGTGTTGTACATATTTTTGTATATGT [XGTACX_site7356]	7.96 ± 0.2
AAAAGAGAAACATTTACACACAAATATAGATATATG [CACACA_site1027]	7.51 ± 0.57
ATAGTATACGGACACACACACACACCGATATATATA [CACACA_site5032]	8.3 ± 0.65
TATCTTATATTTACACGTACGTAGAATTTATAAGTT [XGTACX_site3460]	8 ± 0.3
TTTTATTAATATTATTTATCTTCTCAAAAGATATAT [XGTACX_negctrl_site202]	7.42 ± 0.58
